From PubChem BioAssay (NCATS)
The shares of active, inactive and inconclusive entries below differ from those in the screen. Where the call is inconclusive, the potency comes from a doubtful curve fit. Active and inactive are the calls of the source. Calls follow the shape of the dose curve; as a rule, active = well fitted inhibition curve with a large enough effect; inconclusive = small, poorly fitted or top-dose-only effect; inactive = no such curve, though single readings can be large or run the other way.

molecular target: Retinaldehyde dehydrogenase 3 (Homo sapiens) (UniProt P47895); assay: qHTS for Inhibitors of the Aldehyde Dehydrogenase Family (ALDH1A3) Primary screen (AID 2061315); details: ALDH inhibition qHTS; activity change, negative = inhibition: at 56 µM (top of the series) unless noted;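 as to activity change, negative = inhibition: plate controls were DMSO vehicle for no effect and reference inhibitor for full effect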
Potency is read from the fitted curve at half-maximal effect; tags tell the direction and shape of the fitted curve.

Row | Structure (SMILES) | Potency | activity change, negative = inhibition
1 | OCC1OC(Oc2cc(O)cc(/C=C/c3ccc(OC4OC(CO)C(O)C(O)C4O)cc3O)c2)C(O)C(O)C1O (configuration not stated) | active: 4.47 µM | –
2 | O=C(O)c1cccc(-n2cccc2/C=C2/C(=O)N(Cc3ccc(F)cc3)C(=O)N2Cc2ccc(F)cc2)c1 | – | inactive: 9.18%
3 | C[C@@H]1O[C@@H](O[C@@H]2[C@@H](O)[C@@H](O[C@]3(CO)O[C@H](CO)[C@@H](O)[C@@H]3OC(=O)/C=C/c3ccc(O)cc3)O[C@H](CO)[C@H]2OC(=O)/C=C/c2ccc(O)cc2)[C@H](O)[C@H](O)[C@H]1O[C@@H]1O[C@@H](C)[C@H](O[C@@H]2OC[C@](O)(CO)[C@H]2O)[C@@H](O)[C@H]1O | inconclusive: 3.98 µM [inhibitor, partial curve] | –
4 | OC[C@H]1O[C@@H](O[C@H]2[C@H](O)[C@@H](CO)O[C@@H](OCc3ccccc3)[C@@H]2O[C@@H]2OC[C@](O)(CO)[C@H]2O)[C@H](O)[C@@H](O)[C@@H]1O | inconclusive: 6.31 µM [inhibitor, partial curve] | –
5 | CC1CC(=O)[C@]2(O)C(C(=O)OCCc3ccc(O)c(O)c3)=CO[C@@H](O[C@@H]3O[C@H](CO)[C@@H](O)[C@H](O)[C@H]3O)[C@H]12 (some centres not stated) | inconclusive: 7.94 µM [inhibitor, partial curve] | –
6 | COc1cccc(CNc2ccc([S+](=O)([O-])Nc3cc4ccccc4s3)cc2)c1O | – | inactive: -1.82%
7 | Oc1ccccc1C1Nc2cccc3cccc(c23)N1 | inconclusive: 3.98 µM [inhibitor, partial curve] | –
8 | O=C(O)c1ccccc1C(=O)Nc1ccc(-c2ccccc2)cc1 | inconclusive: 12.6 µM [inhibitor, partial curve, poor fit] | –

molecular target: Aldehyde dehydrogenase 1A1 (Homo sapiens) (UniProt P00352); assay: qHTS for Inhibitors of the Aldehyde Dehydrogenase Family (ALDH1A1) Confirmatory screens (AID 2061316); details: ALDH inhibition qHTS; activity change, negative = inhibition: at 47.3 µM (top of the series); series mostly up to 47.3 µM; also: nearly all actives have a fitted effect of over 65% in size; as to activity change, negative = inhibition: % is scaled to controls: 0 for no effect and ±100 for the full control effect

Row | Structure (SMILES) | outcome | Potency | activity change, negative = inhibition
9 | COc1cccc(C2c3c(ncn(CCCN4CCOCC4)c3=N)Oc3ccc4ccccc4c32)c1 (configuration not stated) | inactive | – | –
10 | O=S(=O)(NCCCCCCNS(=O)(=O)c1c(F)cccc1F)c1ccc2c(c1)OCCO2 | – | active: 8.96 µM | –
11 | c1nc(NCC2CC2)c2cc(-c3ccc4c(c3)OCO4)ccc2n1 | – | inconclusive: 22.5 µM [inhibitor, partial curve] | –
12 | OCC1OC(Oc2cc(O)cc(/C=C/c3ccc(OC4OC(CO)C(O)C(O)C4O)cc3O)c2)C(O)C(O)C1O (configuration not stated) | – | inconclusive: 5.51 µM [inhibitor, partial curve] | –
13 | O=C(O)c1cccc(-n2cccc2/C=C2/C(=O)N(Cc3ccc(F)cc3)C(=O)N2Cc2ccc(F)cc2)c1 | – | – | inactive: -17.4%
14 | O=C(O)c1cccc(-n2cccc2)c1 | – | – | inactive: -15.2%
15 | C[C@@H]1O[C@@H](O[C@@H]2[C@@H](O)[C@@H](O[C@]3(CO)O[C@H](CO)[C@@H](O)[C@@H]3OC(=O)/C=C/c3ccc(O)cc3)O[C@H](CO)[C@H]2OC(=O)/C=C/c2ccc(O)cc2)[C@H](O)[C@H](O)[C@H]1O[C@@H]1O[C@@H](C)[C@H](O[C@@H]2OC[C@](O)(CO)[C@H]2O)[C@@H](O)[C@H]1O | – | inconclusive: 2.14 µM [inhibitor, partial curve] | –
16 | CCc1ccc(CN2CCC(C(=O)Nc3ccc(Oc4cccnc4)cc3)CC2)o1 | – | – | inactive: -14.7%
17 | N#Cc1ccc2[nH]cc(CCCCN3CCN(c4ccc5oc(C(N)=O)cc5c4)CC3)c2c1 | – | – | inconclusive: -46.6% [inhibitor]
18 | O=C(O)c1cc(-c2c(-c3ccccc3)nn3ccccc23)n[nH]c1=O | – | inconclusive: 17.9 µM [inhibitor, partial curve] | –
19 | Cc1cc(N[S+](=O)([O-])c2ccc(NC(=O)Cc3ccc4nccnc4c3)cc2)no1 | – | inconclusive: 22.5 µM [inhibitor, partial curve] | –
20 | OC[C@H]1O[C@@H](O[C@H]2[C@H](O)[C@@H](CO)O[C@@H](OCc3ccccc3)[C@@H]2O[C@@H]2OC[C@](O)(CO)[C@H]2O)[C@H](O)[C@@H](O)[C@@H]1O | – | inconclusive: 5.51 µM [inhibitor, partial curve, poor fit] | –
21 | COc1cccc(Cc2nc3ccccc3nc2SCC(=O)N2CCN(c3ccccc3)CC2)c1 | – | – | inactive: -25%
22 | COc1ccc(C2Nc3ccccc3C(=O)N2Cc2ccc(C(C)(C)C)cc2)cc1COc1ccc(NC(C)=O)cc1 (configuration not stated) | – | inconclusive: 11.2 µM [inhibitor, full curve] | –
23 | Cc1cccc(Nc2nc(C#N)nc(NC3CCCC3)n2)c1 | – | inconclusive: 31.6 µM [inhibitor, partial curve] | –
24 | O=C(O)c1ccccc1Nc1cccc(OCc2ccc3ccccc3n2)c1 | – | inconclusive: 8.96 µM [inhibitor, full curve, poor fit] | –
25 | CC1CC(=O)[C@]2(O)C(C(=O)OCCc3ccc(O)c(O)c3)=CO[C@@H](O[C@@H]3O[C@H](CO)[C@@H](O)[C@H](O)[C@H]3O)[C@H]12 (some centres not stated) | – | active: 12.3 µM | –
26 | COc1cccc(CNC(=O)c2ccc3c(c2)sc2nc(-c4ccccc4)cn23)c1OC | – | inconclusive: 22.9 µM [inhibitor, partial curve, poor fit] | –
27 | Cc1noc(C)c1-c1csc(N2CCC(C(N)=O)CC2)n1 | – | – | inactive: -5.66%
28 | NC(=O)C1CCN(c2nc(-c3ccccc3[N+](=O)[O-])cs2)CC1 | – | active: 5.04 µM | –

Row | Structure (SMILES) | outcome | Potency | activity change, negative = inhibition
29 | CCOc1ccc(NC(=O)Cn2c(Nc3cc(C)cc(C)c3)nc(C)cc2=O)cc1 | – | – | inactive: -22.8%
30 | CCOC(=O)c1ccoc1-c1ccc2ncnc(NCc3ncc[nH]3)c2c1 | – | inconclusive: 28.3 µM [inhibitor, partial curve, poor fit] | –
31 | CC(=O)N[C@@H](CC(=O)O)C(=O)N[C@@H](CCC(=O)O)C(=O)N[C@H](C(=O)N[C@@H](CC(=O)O)C(=O)Nc1ccc2c(C)cc(=O)oc2c1)C(C)C | – | inconclusive: 5.04 µM [inhibitor, full curve] | –
32 | O=[S+]([O-])(Nc1ccc(-c2nc3ccccc3[nH]2)cc1)c1ccc2c(c1)OCO2 | – | – | inactive: -0.562%
33 | CN(CC(=O)O)c1ncnc2ccc(-c3ccc4c(c3)OCO4)cc12 | – | inconclusive: 20.1 µM [inhibitor, partial curve] | –
34 | COc1cccc(CNc2ccc([S+](=O)([O-])Nc3cc4ccccc4s3)cc2)c1O | inactive | – | –
35 | Oc1ccccc1C1Nc2cccc3cccc(c23)N1 | – | inconclusive: 17.9 µM [inhibitor, partial curve] | –
36 | O=C(O)c1ccc(-n2cccc2/C=C2\SC(=O)N(Cc3ccc(F)cc3)C2=O)cc1 | – | inconclusive: 10.1 µM [inhibitor, partial curve, poor fit] | –
37 | COc1ccc(-c2nc(CCNC(=O)c3c(F)cccc3Cl)cs2)cc1 | – | – | inactive: -25.8%
38 | COc1ccc(C2Nc3ccccc3C(=O)N2Cc2ccccc2)cc1COc1ccc(Cl)cc1 (configuration not stated) | – | inconclusive: 22.5 µM [inhibitor, partial curve] | –
39 | CN(C)[S+](=O)([O-])c1ccc(-c2cncc(NC(=O)c3cccs3)c2)cc1 | – | – | inactive: -0.893%
40 | Cc1cc(-c2nnc3n2CCCCC3)c(C)n1-c1ccc(Cl)c(Cl)c1 | – | active: 14.2 µM | –
41 | NC(N)=NCCC[C@H](NC(=O)c1sccc1NS(=O)(=O)c1cccc2nsnc12)C(=O)O | – | – | inactive: -11.8%
42 | O=C(NCc1ccccc1)C1CCN(c2nc(-c3ccc(Br)cc3)cs2)CC1 | – | inconclusive: 22.5 µM [inhibitor, partial curve] | –
43 | CN1CCc2sc(NC(=O)Cc3ccccc3)c(C(=O)Nc3ccc(Cl)cc3)c2C1 | – | inconclusive: 1.79 µM [inhibitor, full curve] | –
44 | CCCCN(C)C(=O)Cn1nc(-c2ccc(Cl)cc2)ccc1=O | – | inconclusive: 20.1 µM [inhibitor, partial curve] | –
45 | O=C(O)c1ccccc1C(=O)Nc1ccc(-c2ccccc2)cc1 | – | inconclusive: 5.04 µM [inhibitor, full curve, poor fit] | –
46 | O=C(O)c1ccc(-n2cccc2/C=C2\SC(=O)N(Cc3ccc(Br)cc3)C2=O)cc1 | inactive | – | –
47 | Cc1nnc(-c2cnn(C)c2N)n1CCc1ccccc1 | – | – | inactive: -8.15%
